# Test results published in the supplement of paper PMC8728848.
# Some of the results follow.
# B1: PX9937A-bvu-521-23-521 (Bacteroides vulgatus) (protein)
# chain: LDLAPEDYYGAGNFWKEASQPKAFMLGLHAQLRSYYDMFYTLGELRGGTQRVGTSSLNTSLNYADIRSQNISEDIPGISNWNGLYSPIMQVNHFIQEVENGCTFLDDATRSRYLGQAYGMRALYYFMLYRTFGGVPLITKVDILDGKPSADKFYVERATPEATMEFIKADINKSENYFGNNTSFDAYDWSRYATLMLKAEIYMWAAKVSITGFTATGATDLQTAKTALSGIIGHFELMDNFASIFSCDNKKNTEIIFAMPFIEGEASNDGGRFLYQDAVFLGQAYGRNGKVIEKDTLNLKGTGGVFRDEYTEDFWKTFKEGDSRRDATFMEYYMKNDNGTLSEFGCVMKKRIGTINSNDNRIYISDIPVYRYADALLMMAEIENGLNNPCASYINEVRKRAYGDTFEENKYTEGSYAENELAILQERDKEFVSEGKRWFDVLRMHDASGRSLVFSANANYPGTNPILGTEEAYKMLWPVNIGTLNVNPLLTQTPGYGKK
# Tests used:
# Assay in all cases: glycan array binding signal (z-score within array); higher = stronger binding
# Conditions in all cases: glycan notation: IUPAC condensed, linker removed
# [1] = target: Neu5Ac(a2-6)Gal(b1-4)GlcNAc(b1-2)Man(a1-3)[Neu5Ac(a2-3)Gal(b1-4)GlcNAc(b1-2)Man(a1-6)]Man(b1-4)GlcNAc(b1-4)GlcNAc
# Method in brief: (§1)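 Glycan array data came from 3228 arrays in the Consortium for Functional Glycomics database, and only arrays with an available protein sequence were kept. Glycan names were put into IUPAC-condensed notation, and columns mapping to the same glycan were averaged. The binding signal is a within-array Z-score, averaged across arrays of one protein sequence run at different concentrations or buffers and across linkers. A negative Z-score can be read as non-binding.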
# [2] = target: Neu5Ac(a2-6)Gal(b1-4)GlcNAc(b1-2)Man(a1-3)[Neu5Ac(a2-6)Gal(b1-4)GlcNAc(b1-2)Man(a1-6)]Man(b1-4)GlcNAc(b1-4)GlcNAc
# Method in brief: as §1
# [3] = target: Neu5Ac(a2-6)Gal(b1-4)GlcNAc(b1-2)Man(a1-3)[Neu5Ac(a2-6)Gal(b1-4)GlcNAc(b1-2)Man(a1-6)]Man(b1-4)GlcNAc(b1-4)[Fuc(a1-6)]GlcNAc
# Method in brief: as §1
# [4] = target: Neu5Ac(a2-6)Gal(b1-4)GlcNAc(b1-2)Man(a1-6)Man(b1-4)GlcNAc(b1-4)GlcNAc
# Method in brief: as §1
# [5] = target: Neu5Ac(a2-6)Gal(b1-4)GlcNAc(b1-2)Man(a1-6)[Gal(b1-4)GlcNAc(b1-2)Man(a1-3)]Man(b1-4)GlcNAc(b1-4)GlcNAc
# Method in brief: as §1
# [6] = target: Neu5Ac(a2-6)Gal(b1-4)GlcNAc(b1-2)Man(a1-6)[GlcNAc(b1-2)Man(a1-3)]Man(b1-4)GlcNAc(b1-4)GlcNAc
# Method in brief: as §1
# [7] = target: Neu5Ac(a2-6)Gal(b1-4)GlcNAc(b1-2)Man(a1-6)[Man(a1-3)]Man(b1-4)GlcNAc(b1-4)GlcNAc
# Method in brief: as §1
# [8] = target: Neu5Ac(a2-6)Gal(b1-4)GlcNAc(b1-2)[Neu5Ac(a2-6)Gal(b1-4)GlcNAc(b1-4)]Man(a1-3)[GlcNAc(b1-4)][Neu5Ac(a2-6)Gal(b1-4)GlcNAc(b1-2)[Neu5Ac(a2-6)Gal(b1-4)GlcNAc(b1-6)]Man(a1-6)]Man(b1-4)GlcNAc(b1-4)GlcNAc
# Method in brief: as §1
# [9] = target: Neu5Ac(a2-6)Gal(b1-4)GlcNAc(b1-2)[Neu5Ac(a2-6)Gal(b1-4)GlcNAc(b1-4)]Man(a1-3)[GlcNAc(b1-4)][Neu5Ac(a2-6)Gal(b1-4)GlcNAc(b1-4)Man(a1-6)]Man(b1-4)GlcNAc(b1-4)GlcNAc
# Method in brief: as §1
# [10] = target: Neu5Ac(a2-6)Gal(b1-4)GlcNAc(b1-2)[Neu5Ac(a2-6)Gal(b1-4)GlcNAc(b1-6)]Man(a1-6)[Neu5Ac(a2-6)Gal(b1-4)GlcNAc(b1-2)Man(a1-3)][GlcNAc(b1-4)]Man(b1-4)GlcNAc(b1-4)GlcNAc
# Method in brief: as §1
# [11] = target: Neu5Ac(a2-6)Gal(b1-4)GlcNAc(b1-3)Gal(b1-3)GlcNAc
# Method in brief: as §1
# [12] = target: Neu5Ac(a2-6)Gal(b1-4)GlcNAc(b1-3)Gal(b1-4)GlcNAc
# Method in brief: as §1
# [13] = target: Neu5Ac(a2-6)Gal(b1-4)GlcNAc(b1-3)Gal(b1-4)GlcNAc(b1-2)Man(a1-3)[Neu5Ac(a2-6)Gal(b1-4)GlcNAc(b1-3)Gal(b1-4)GlcNAc(b1-2)Man(a1-6)]GalNAc
# Method in brief: as §1
# [14] = target: Neu5Ac(a2-6)Gal(b1-4)GlcNAc(b1-3)Gal(b1-4)GlcNAc(b1-3)Gal(b1-4)GlcNAc
# Method in brief: as §1
# [15] = target: Neu5Ac(a2-6)Gal(b1-4)GlcNAc(b1-3)Gal(b1-4)GlcNAc(b1-3)Gal(b1-4)GlcNAc(b1-2)Man(a1-3)[Neu5Ac(a2-6)Gal(b1-4)GlcNAc(b1-3)Gal(b1-4)GlcNAc(b1-3)Gal(b1-4)GlcNAc(b1-2)Man(a1-6)]GalNAc
# Method in brief: as §1
# [16] = target: Neu5Ac(a2-6)Gal(b1-4)GlcNAc(b1-3)Gal(b1-4)GlcNAc(b1-3)GalNAc
# Method in brief: as §1
# [17] = target: Neu5Ac(a2-6)Gal(b1-4)GlcNAc(b1-3)Gal(b1-4)GlcNAc(b1-3)[Neu5Ac(a2-6)Gal(b1-4)GlcNAc(b1-3)Gal(b1-4)GlcNAc(b1-6)]GalNAc
# Method in brief: as §1
# [18] = target: Neu5Ac(a2-6)Gal(b1-4)GlcNAc(b1-3)Gal(b1-4)GlcNAc(b1-6)[Gal(b1-3)]GalNAc
# Method in brief: as §1
# [19] = target: Neu5Ac(a2-6)Gal(b1-4)GlcNAc(b1-3)Gal(b1-4)[Fuc(a1-3)]GlcNAc(b1-3)Gal(b1-4)[Fuc(a1-3)]GlcNAc
# Method in brief: as §1
# [20] = target: Neu5Ac(a2-6)Gal(b1-4)GlcNAc(b1-3)GalNAc
# Method in brief: as §1
# [21] = target: Neu5Ac(a2-6)Gal(b1-4)GlcNAc(b1-3)[Neu5Ac(a2-6)Gal(b1-4)GlcNAc(b1-6)]GalNAc
# Method in brief: as §1
# [22] = target: Neu5Ac(a2-6)Gal(b1-4)GlcNAc(b1-6)GalNAc
# Method in brief: as §1
# [23] = target: Neu5Ac(a2-6)Gal(b1-4)GlcNAc(b1-6)[Gal(b1-3)GlcNAc(b1-3)]Gal(b1-4)Glc
# Method in brief: as §1
# [24] = target: Neu5Ac(a2-6)Gal(b1-4)GlcNAc(b1-6)[Gal(b1-3)]GalNAc
# Method in brief: as §1
# [25] = target: Neu5Ac(a2-6)Gal(b1-4)GlcNAc6S
# Method in brief: as §1
# Neu5Ac(a2-6)GalNAc = target: Neu5Ac(a2-6)GalNAc
# Method in brief: as §1
# [26] = target: Neu5Ac(a2-6)GalNAc(b1-4)GlcNAc
# Method in brief: as §1
# [27] = target: Neu5Ac(a2-6)GalNAc(b1-4)GlcNAc6S
# Method in brief: as §1
# [28] = target: Neu5Ac(a2-6)GlcNAc(b1-4)GlcNAc
# Method in brief: as §1
# [29] = target: Neu5Ac(a2-6)GlcNAc(b1-4)GlcNAc(b1-4)GlcNAc
# Method in brief: as §1
binder,measurement,setting,value
B1,glycan array binding signal (z-score),[1],-0.403
same,glycan array binding signal (z-score),[2],-0.103
same,glycan array binding signal (z-score),[3],-0.08
same,glycan array binding signal (z-score),[4],-0.252
same,glycan array binding signal (z-score),[5],-0.132
same,glycan array binding signal (z-score),[6],-0.416
same,glycan array binding signal (z-score),[7],-0.272
same,glycan array binding signal (z-score),[8],0.053
same,glycan array binding signal (z-score),[9],-0.124
same,glycan array binding signal (z-score),[10],-0.358
same,glycan array binding signal (z-score),[11],-0.411
same,glycan array binding signal (z-score),[12],-0.299
same,glycan array binding signal (z-score),[13],0.061
same,glycan array binding signal (z-score),[14],-0.211
same,glycan array binding signal (z-score),[15],0.232
same,glycan array binding signal (z-score),[16],-0.174
same,glycan array binding signal (z-score),[17],-0.125
same,glycan array binding signal (z-score),[18],-0.122
same,glycan array binding signal (z-score),[19],-0.13
same,glycan array binding signal (z-score),[20],-0.431
same,glycan array binding signal (z-score),[21],-0.629
same,glycan array binding signal (z-score),[22],-0.654
same,glycan array binding signal (z-score),[23],0.043
same,glycan array binding signal (z-score),[24],0.605
same,glycan array binding signal (z-score),[25],0.278
same,glycan array binding signal (z-score),Neu5Ac(a2-6)GalNAc,-0.345
same,glycan array binding signal (z-score),[26],-0.422
same,glycan array binding signal (z-score),[27],0.342
same,glycan array binding signal (z-score),[28],0.015
same,glycan array binding signal (z-score),[29],-0.187
